Measurements: article PMC4336329 (PLoS ONE, 2015)
About 14,000 (4.5%) of roughly 310,000 compounds showed an effect of 50% or more. The effect is printed as a negative number. Some of the results follow.

What follows are compounds tested against human ether-à-go-go-related gene (hERG) potassium channel (human, UniProt Q12809) (assay: primary screen, population patch clamp on CHO cells stably expressing hERG).
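Also: peak tail current of the secondary pulse compared with the same well before compound.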

Sequence of human ether-à-go-go-related gene (hERG) potassium channel (Q12809 whole entry, looked up): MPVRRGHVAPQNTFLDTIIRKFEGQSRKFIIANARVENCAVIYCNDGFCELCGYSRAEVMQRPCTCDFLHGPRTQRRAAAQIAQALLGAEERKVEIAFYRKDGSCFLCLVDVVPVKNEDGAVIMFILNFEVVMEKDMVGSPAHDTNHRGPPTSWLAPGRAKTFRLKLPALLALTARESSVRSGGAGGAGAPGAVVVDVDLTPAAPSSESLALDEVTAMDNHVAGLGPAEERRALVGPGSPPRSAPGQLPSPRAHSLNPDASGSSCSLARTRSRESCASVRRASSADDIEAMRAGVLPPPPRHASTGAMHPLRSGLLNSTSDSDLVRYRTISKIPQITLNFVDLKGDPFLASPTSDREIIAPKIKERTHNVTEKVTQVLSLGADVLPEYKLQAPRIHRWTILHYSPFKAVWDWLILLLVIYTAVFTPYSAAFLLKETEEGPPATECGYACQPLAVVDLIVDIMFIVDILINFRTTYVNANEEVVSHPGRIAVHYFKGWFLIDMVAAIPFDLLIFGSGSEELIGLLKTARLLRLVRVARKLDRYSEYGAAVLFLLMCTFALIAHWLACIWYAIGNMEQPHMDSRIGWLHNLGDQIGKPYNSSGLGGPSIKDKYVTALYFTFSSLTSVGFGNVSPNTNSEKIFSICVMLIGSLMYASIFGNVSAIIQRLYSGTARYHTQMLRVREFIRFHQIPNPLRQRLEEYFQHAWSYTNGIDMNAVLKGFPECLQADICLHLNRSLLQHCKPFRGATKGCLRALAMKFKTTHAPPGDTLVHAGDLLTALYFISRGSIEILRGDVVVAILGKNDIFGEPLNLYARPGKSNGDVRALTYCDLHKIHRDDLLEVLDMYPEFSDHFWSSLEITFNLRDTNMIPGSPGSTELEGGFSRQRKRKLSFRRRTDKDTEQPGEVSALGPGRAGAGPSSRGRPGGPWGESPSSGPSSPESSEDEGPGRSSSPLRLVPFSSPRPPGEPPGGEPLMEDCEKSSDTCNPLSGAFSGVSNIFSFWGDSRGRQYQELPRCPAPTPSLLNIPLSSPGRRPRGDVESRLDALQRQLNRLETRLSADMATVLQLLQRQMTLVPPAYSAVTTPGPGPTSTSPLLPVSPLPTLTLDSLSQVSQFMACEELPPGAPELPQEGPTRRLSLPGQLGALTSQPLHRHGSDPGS

First: CCOC(=O)C1CCN(C(=O)COC(=O)c2cc([N+](=O)[O-])ccc2N2CCOCC2)CC1
Second: CCOC(=O)N1CCC(N2Cc3cccc(C(=O)NCc4ccccn4)c3C2=O)CC1
The “hERG current change (%, negative = inhibition) at 10uM” value of the first is higher: -12.6% for the first, -34.5% for the second.

Going from `O=C(O)CC(c1ccccc1)n1cccc1` (stereo not shown) to `O=C(CSc1ncn(-c2ccccc2)n1)Nc1nncs1`, the “hERG current change (%, negative = inhibition) at 10uM” value rises from 6.13% to 10.1%.

Compared with `O=S(=O)(c1cccs1)N1CCN(c2cccc(Cl)c2)CC1`, `O=C(CCc1ccccc1)N1CCN(c2ccc([N+](=O)[O-])cc2)CC1` is lower in “hERG current change (%, negative = inhibition) at 10uM” value: 9.08% for the first, -73.1% for the second.

First: COc1c(Cl)cc(-c2noc(C)c2C(=O)NCc2ccc3c(c2)OCO3)cc1Cl
Second: CCCS(=O)(=O)c1cscc1NC(=O)c1c(-c2c(F)cccc2Cl)noc1C
The “hERG current change (%, negative = inhibition) at 10uM” value of the first is higher: 2.73% for the first, -10% for the second.

First: Cc1ccc(NC(=O)c2ccc(-n3cccn3)c([N+](=O)[O-])c2)cc1
Second: Cc1ccc(NC(=O)c2ccc(Cn3cc(Br)cn3)o2)cc1
The “hERG current change (%, negative = inhibition) at 10uM” value of the first is lower: -23.7% for the first, -21% for the second.

Compared with `CCn1c(CSc2nnc3ccccn23)nc2cc(C(=O)O)ccc21`, `CCCc1nc2ccccc2c(=O)n1CC(=O)c1ccc(OC)cc1` is higher in “hERG current change (%, negative = inhibition) at 10uM” value: -3.91% for the first, 17% for the second.

Going from `COC(=O)c1ccc(N2C(=O)CC(N3CCC(O)(c4ccc(Br)cc4)CC3)C2=O)cc1` (stereo not shown) to `Cn1c2ccccc2n2c(=O)c(=O)n(CC(=O)c3ccc(F)cc3)nc12`, the “hERG current change (%, negative = inhibition) at 10uM” value rises from -8.14% to 2.5%.

First: Cc1nc(-c2cccnc2)sc1C(=O)Nc1ccc(C(F)(F)F)cc1
Second: O=C(CSc1nnc(-c2ccncc2)n1-c1ccc(Cl)cc1)NCc1cccs1
The “hERG current change (%, negative = inhibition) at 10uM” value of the first is higher: -6.46% for the first, -15.3% for the second.

First: CCNc1nc(NCC)nc(OCCNS(=O)(=O)c2ccccc2)n1
Second: O=C1COc2ccc(S(=O)(=O)NCc3ccccc3)cc2N1
The “hERG current change (%, negative = inhibition) at 10uM” value of the first is lower: 12.8% for the first, 19.4% for the second.

Compared with `COC(=O)C1C(=O)c2c([nH]c(C(=O)OCCSC)c2C)CC1C` (stereo not shown), `CCCCOC(=O)c1ccc(NC(=O)CSCc2n[nH]c(=O)[nH]2)cc1` is higher in “hERG current change (%, negative = inhibition) at 10uM” value: -17.3% for the first, 1.91% for the second.

Compared with `NC(=O)c1nn(-c2ccccc2)nc1NC(=O)CN1CCCC1`, `O=C(CN1CCC(NC(=O)c2ccco2)CC1)Nc1cccc2ccccc12` is higher in “hERG current change (%, negative = inhibition) at 10uM” value: -14.7% for the first, -12.4% for the second.

Compared with `COc1ccc(C(C)C)cc1S(=O)(=O)n1cnc(C)c1`, `CCN(CC)S(=O)(=O)c1cc(C(=O)Oc2ccccc2OC)ccc1OC` is lower in “hERG current change (%, negative = inhibition) at 10uM” value: -12.6% for the first, -25.5% for the second.

Going from `CCC(C)(C)n1nnnc1C(c1cc(OC)ccc1OC)N1CCC(C(N)=O)CC1` (stereo not shown) to `CC(C)c1ccccc1OCC(=O)N1CCCCCCC1`, the “hERG current change (%, negative = inhibition) at 10uM” value rises from -1.9% to 13%.

Going from `COc1ccc(CCNC(=O)Cc2ccc(OCc3ccccc3)c(OC)c2[N+](=O)[O-])cc1OCc1ccccc1` to `COc1ccccc1OCCNC(=O)C1CC(=O)N(Cc2ccccc2)C1` (stereo not shown), the “hERG current change (%, negative = inhibition) at 10uM” value falls from 7.7% to -10.2%.

Compared with `Cc1ccc(S(=O)(=O)N(C)c2ccc(OCC(=O)Nc3nc4c(ccc5ccccc54)s3)cc2)cc1`, `O=C(CN(Cc1ccccc1)S(=O)(=O)c1ccc(F)cc1)NCc1ccncc1` is lower in “hERG current change (%, negative = inhibition) at 10uM” value: 5.08% for the first, -52.3% for the second.

First: Cc1ncc(CO)c2cc(C(N)=O)c(=Nc3ccccc3)oc12
Second: Clc1ccc(OCc2nn3c(-c4ccccc4)nnc3s2)c(Cl)c1
The “hERG current change (%, negative = inhibition) at 10uM” value of the first is lower: -27.7% for the first, -10.6% for the second.

Going from `O=[N+]([O-])c1ccccc1S(=O)(=O)Nc1ccc(-c2ccc(N3CCOCC3)nn2)cc1` to `O=C(CSc1nc2cc(S(=O)(=O)N3CCOCC3)ccc2o1)Nc1c(F)cccc1F`, the “hERG current change (%, negative = inhibition) at 10uM” value rises from -11.8% to 3.71%.

Going from `Cn1c(N)c(C(=O)COC(=O)COc2ccc3ccccc3c2)c(=O)n(C)c1=O` to `COc1ccccc1NC(=O)COc1ccc(C(=O)OCC(=O)N2CCCC2=O)cc1OC`, the “hERG current change (%, negative = inhibition) at 10uM” value rises from -8.66% to 3.01%.

Going from `Cc1ccccc1OCC(=O)Nc1nnc(COc2ccccc2)s1` to `COc1ccc(/C=C/C(=O)NCc2ccccn2)cc1`, the “hERG current change (%, negative = inhibition) at 10uM” value falls from 14.1% to -3.07%.

First: COc1ccc(S(=O)(=O)c2ccccc2)cc1NC(=O)c1c(F)cccc1F
Second: CC1(c2ccccc2Br)NC(=O)N(CC(=O)Nc2ccc(S(N)(=O)=O)cc2)C1=O (stereo not shown)
The “hERG current change (%, negative = inhibition) at 10uM” value of the first is lower: -5.26% for the first, 23.7% for the second.

Compared with `Cn1c(=O)c2c(nc(CN3CCc4ccccc4C3)n2Cc2ccc(F)cc2)n(C)c1=O`, `Cc1cccc(C(=O)N2CCCC(Nc3ccc(F)c(F)c3)C2)n1` (stereo not shown) is higher in “hERG current change (%, negative = inhibition) at 10uM” value: -26.5% for the first, -1.54% for the second.

First: OCCOCCN1CCN(C(=S)Nc2ccccc2)CC1
Second: O=C(O)C(=O)O.O=C(c1ccccc1)N1CCN(CC2CC=CCC2)CC1 (stereo not shown)
The “hERG current change (%, negative = inhibition) at 10uM” value of the first is higher: 21.8% for the first, -23.7% for the second.

Going from `CCn1c(-c2cc(OC)c(OC)c(OC)c2)n[nH]c1=S` to `COc1cc(OC)c(OC)cc1CNCc1ccco1`, the “hERG current change (%, negative = inhibition) at 10uM” value falls from 12.1% to 8.08%.

Going from `CC(C)C(=O)Nc1cccc(NC(=S)NC(=O)c2ccccc2Cl)c1` to `O=C(Nc1cccc(O)c1)C1CC(c2cccc(Br)c2)=NO1` (stereo not shown), the “hERG current change (%, negative = inhibition) at 10uM” value rises from -9.02% to 4.7%.

Going from `Cc1ccc(/C([O-])=C(/C(=S)NCc2ccco2)[n+]2ccccc2)cc1[N+](=O)[O-]` to `CCC(=O)c1ccc(OCc2ccc(C(=O)OC)cc2)c(OC)c1`, the “hERG current change (%, negative = inhibition) at 10uM” value rises from -18% to -11.2%.

First: O=C(O)C1=C[C@H](c2ccc(F)cc2)C[C@H](OCCCCO)O1
Second: COC(=O)c1ccc(OCC(O)CN(CCO)CCO)cc1 (stereo not shown)
The “hERG current change (%, negative = inhibition) at 10uM” value of the first is higher: 10.7% for the first, -3.29% for the second.

Going from `O=C(CC(=O)NC1CCCCC1)N/N=C/c1ccccc1[N+](=O)[O-]` to `O=C(c1ccccc1)c1cccn1CC(=O)N1CCN(C2CCCCC2)CC1`, the “hERG current change (%, negative = inhibition) at 10uM” value falls from 13.3% to -52.6%.

For `CC(=O)c1ccc2c(c1)Cc1cc(C(C)=O)ccc1-2`, the “hERG current change (%, negative = inhibition) at 10uM” value was 16.3%.
